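These data come from cells grown in 96-well plates and exposed to compound for 48 hours at five concentrations. At the GI50, growth is halved.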 Active and inactive are the calls of the source. Rule as the data show it: active = GI50 up to about 1.1 µM and inactive = higher. Peptide text beside a SMILES is read from it. * marks the point of attachment. Boc = CC(C)(C)OC(=O)*; OBn = c1ccc(CO*)cc1
Test system: NCI-H322M
Test: growth of human tumour cells (NCI), 48 h

SMILES | GI50
Cc1cc(-c2nc3ccc(F)cc3s2)ccc1N | inactive: 76.6 µM
COc1ccc(S(=O)(=O)Nc2ccc(-c3csc(N4C(=O)/C(=C/c5cccs5)N=C4c4ccccc4)n3)cc2)cc1Cl | inactive: > 100 µM
Cc1ccc(-n2cc(-c3ccc(Cl)cc3)c3c2N=CN2N=C(c4ccco4)NC32)cc1 (stereo unspecified) | inactive: 56.2 µM
c1ccc(SC(Sc2ccccc2)=C2CCC2)cc1 | inactive: > 100 µM
COc1cc(S(=O)(=O)Nc2ccc(-c3csc(N4C(=O)C(C)SC4c4ccccc4)n3)cc2)ccc1Cl (stereo unspecified) | active: 0.0581 µM
Nc1nc(SCc2ccc([N+](=O)[O-])cc2)nc2c1ncn2C1OC(COP(=O)(O)O)C(O)C1O (stereo unspecified) | inactive: > 100 µM
CN1[C@@H]2CCCC[C@H]2N(C)P1(=O)C(O)/C=C/c1ccccc1 (stereo partly specified) | inactive: > 100 µM
O=c1[nH]cnc2c1nnn2C1C=C(CO)C(O)C1O (stereo unspecified) | inactive: > 100 µM
CCOC(=O)C(C)NC(=O)NC12CC3CC(CC(F)(C3)C1)C2 (stereo unspecified) | inactive: > 100 µM
COc1cc2c(c(OC)c1OC)-c1ccc(OC)c(=O)cc1C(NC(=O)COc1ccccc1)CC2 (stereo unspecified) | active: < 0.01 µM
CC(C)CC(NC(=O)OC(C)(C)C)C(=O)NC(CC(=O)OCc1ccccc1)C(N)=O (stereo not drawn) (Boc-Leu-Asp(OBn)-NH2; configuration not given here) | inactive: > 100 µM
Clc1nc2c(C#Cc3ccccc3)ncnc2n1C1CCCCO1 (stereo unspecified) | inactive: 15.6 µM
COc1cccc(C2c3cc4c(cc3OC3COC(=O)C32)OCO4)c1OC (stereo unspecified) | inactive: > 100 µM
C[C@@]1(c2ccccc2)O[C@@H]2C[C@H]3[C@@H]4CCC5=CC(=O)C=C[C@]5(C)[C@@]4(F)[C@@H](O)C[C@]3(C)[C@]2(C(=O)CO)O1 [AMCINAFIDE] | inactive: 17.5 µM
CCCCCCCCCCCC(=O)c1c(O)cc(C)oc1=O | inactive: 61.4 µM
NS(=O)(=O)c1ccc(Nc2c3ccccc3nc3c(C(=O)NCCO)cccc23)cc1 | active: 0.193 µM
CCC(/C(=N\Nc1c(Cl)cc(Cl)cc1Cl)c1ccccc1)n1ccnc1C (stereo unspecified) | inactive: 14.4 µM
COP1(=O)CC2C(Cl)(Cl)C2(C)C1 (stereo unspecified) | inactive: > 100 µM
C#C[C@]1(O)CC[C@H]2[C@@H]3CCC4=C/C(=N\OCCN5CCCCC5)CC[C@]4(C)[C@H]3CC[C@@]21C | inactive: 11.7 µM
S=C1Cc2c(-c3ccc(Cl)cc3)cc(-c3ccccc3)nc2-c2ccccc2N1 | inactive: 10.9 µM
COc1ccc(CCN2CCN(CCCc3ccccc3)CC2)cc1 | inactive: > 100 µM
CC(C)=CCc1c(C)cc2cc3c(c(O)c2c1O)C(=O)C=C(O)C3(CC=C(C)C)C/C=C(\C)CO (stereo unspecified) | inactive: 36.1 µM

SMILES | GI50
O=NN1C(c2ccccc2)CCCC1c1ccccc1 (stereo unspecified) | inactive: > 100 µM
O=C(CC1(O)C(=O)Nc2c(Cl)cccc21)c1ccccc1 (stereo unspecified) | inactive: > 100 µM
C=C(Cl)/C(=C\Cl)CCC(Br)C(C)C (stereo unspecified) | inactive: > 100 µM
O=C(OCCOCBr)c1ccccc1 | inactive: > 100 µM
Cc1cc(S(=O)(=O)Nc2nc(N)nc(N3CCOCC3)n2)c(SCC(=O)O)cc1Cl | inactive: > 10 µM
CCOC(=O)/C(=C\c1ccc(OCc2ccccc2)c(OC)c1)C(=O)c1ccccc1 | inactive: 48 µM
O=C(/C=C/c1ccccc1O)c1cccnc1 | inactive: > 100 µM
CSc1nc2c(nc(N)n2C2OC(CO)C(O)C(O)C2O)c(=O)n1C (stereo unspecified) | inactive: > 100 µM
COCCOC1=C(Cl)C(=O)c2c(O)ccc(O)c2C1=O | inactive: 10.4 µM
C[C@]12CC/C(=N\O)C=C1CC[C@@H]1[C@@H]2CC[C@]2(C)C(=N/O)/C(=C/c3ccncc3)C[C@@H]12 | inactive: 21.3 µM
O=C1OC(c2ccccc2)=N/C1=C\c1cn[nH]n1 | inactive: > 100 µM
N#Cc1c(-c2ccc([N+](=O)[O-])cc2)c(C#N)c(=O)n(NS(=O)(=O)c2ccccc2)c1S | inactive: 71.4 µM
CC(=O)Oc1ccc2cc(Oc3cc(Cl)c(Cl)cc3Cl)c(=O)oc2c1 | inactive: 23.4 µM
C=C(Br)C(Br)(CCl)CCC(Cl)C(C)C.C=C(Cl)C(Br)(CCl)CCC(Cl)C(C)C (stereo unspecified) | inactive: 4.48 µM
CC(=O)OCC1OC(Sc2nc(-c3ccc(C)cc3)c(C#N)c(=O)n2C2OC(COC(C)=O)C(OC(C)=O)C(OC(C)=O)C2OC(C)=O)C(OC(C)=O)C(OC(C)=O)C1OC(C)=O (stereo unspecified) | inactive: > 100 µM
Cc1ncc2c(=O)c3c(oc2n1)c1ccccc1n3Cc1ccccc1 | inactive: > 100 µM
NC(CCCCCP(=O)(O)O)C(=O)O (stereo unspecified) [AP-7] | inactive: > 100 µM
Cc1ccc(/C(=C/C=C(C#N)C#N)Sc2cc(Cl)ccc2Cl)cc1 | inactive: 17.4 µM
COc1ccc(/C=C/C(=O)c2sc(-n3nc(-c4ccccc4)cc3-c3ccccc3)nc2C)cc1 | inactive: > 100 µM
NCCSCCC(=O)O | inactive: > 100 µM
Nc1nc(Cl)cc(NCC2(O)CC(CO)C2)n1 (stereo unspecified) | inactive: > 100 µM
C/C=C(\NC(=O)C(CCCCN)NC(=O)C(C)NC(=O)C1CSC(C)C(NC(=O)C2CSCC(NC(=O)C(C)NC(=O)C(N)C(C)CC)C(=O)NC(CCCCN)C(=O)NC(Cc3ccccc3)C(=O)NC(CC(C)C)C(=O)N2)C(=O)N2CCCC2C(=O)NCC(=O)N1)C(=O)NCC(=O)NC1CSCC2NC(=O)C(Cc3ccc(O)cc3)NC(=O)C(CSC=CNC2=O)NC(=O)C(CC(N)=O)NC(=O)C(Cc2ccccc2)NC1=O (stereo unspecified) | inactive: > 100 µM

SMILES | GI50
Cn1cc(S(=O)(=O)NC(=O)Nc2ccc(Cl)cc2)c(=O)c2ccc(Cl)cc21 | inactive: 20.9 µM
O=c1[nH]c(=O)n(C2OC(COP(=O)(O)OP(=O)(O)O)C(O)C2O)cc1F (stereo unspecified) | inactive: 4.47 µM
COc1ccc(Cn2c3c(cc(OS(=O)(=O)C(F)(F)F)c2=O)Cc2ccccc2-3)cc1 | inactive: 15.5 µM
O=C1NN(Cc2ccccc2)C(=O)N2CCC[C@@H]12 | inactive: > 100 µM
Cc1cc(N(CCC#N)CCC#N)ccc1C(=N/NC(=O)c1cc(Cl)ccc1O)/N=N/c1cccc([N+](=O)[O-])c1 | inactive: 11.3 µM
COc1cc(-c2oc3c(OC)cc(OC)c(O)c3c(=O)c2OC)cc(OC)c1OC | inactive: 71.9 µM
CC(=O)NC1C(OCc2ccccc2)OC(CO)C(O)C1OCC(=O)N[C@@H](C)C(=O)N[C@H](CCC(=O)NCCCNc1c2ccccc2nc2cccc([N+](=O)[O-])c12)C(N)=O (stereo partly specified) | active: 0.11 µM
N#Cc1c(Cl)cc(C#N)n2c1nc1ccccc12 | inactive: 24.3 µM
Cc1ccc2nc(C(C)C)c(=O)[nH]c2c1 | inactive: > 100 µM
C[Si](C)(C)C(CCCCSc1ccccc1)(Sc1ccccc1)Sc1ccccc1 | inactive: > 100 µM
c1ccc(-c2sc(-c3cccs3)cc2Cc2cccs2)cc1 | inactive: > 10 µM
C/C=C/CP(=O)(c1ccccc1)c1ccccc1 | inactive: > 100 µM
C/C=C/COc1cc(NC(=S)OC(C)C)ccc1Cl.C/C=C\COc1cc(NC(=S)OC(C)C)ccc1Cl | inactive: 20.4 µM
Cc1ccc(S(=O)(=O)N2CC(CCN)c3ccccc32)cc1 (stereo unspecified) | inactive: 6.15 µM
O=c1[nH]cc(COCCO)c(=O)[nH]1 | inactive: > 100 µM
CCC1CC(=O)N(SCC(N)C(=O)O)C1=O (stereo unspecified) | inactive: > 100 µM
O=c1c2cc([N+](=O)[O-])cnc2sn1-c1ccc(Oc2ccccc2)cc1 | inactive: 36.1 µM
COc1cc2c(c(OC)c1OC)-c1ccc(SC)c(=O)cc1[C@@H](NC(=O)c1ccc(F)cc1)CC2 | active: 0.0798 µM
C=CC[C@]12C[C@@H](C(=O)OC)N(C(=O)OC)[C@H]1N(S(=O)(=O)c1ccccc1)c1ccccc12 | inactive: > 100 µM
O=C(Cn1ccnc1[N+](=O)[O-])N(CCO)CCO | inactive: > 250 µM
Cc1ccc(-n2cc(-c3ccc(Cl)cc3)c(C#N)c2N)cc1 | inactive: 16.6 µM
O=C(COc1ccc(OCC(=O)N2C(=O)CC/C2=N\c2ccc(Cl)cc2)cc1)N1C(=O)CS/C1=N\c1ccc(Cl)cc1 | inactive: > 100 µM

SMILES | GI50
COc1ccc(NC(=O)N(C)CC2(O)CCC(C(C)(C)C)CC2)cc1 (stereo unspecified) | inactive: > 100 µM
NC(=O)C(=CNC(=S)Nc1ccc(S(=O)(=O)Nc2ccccn2)cc1)C(N)=O | inactive: > 100 µM
CCN(CC)C(=O)Cc1[nH][nH]c(=O)c1C(=O)N(CC)CC | inactive: > 100 µM
CN1NC2(CCCCC2)ON=C1c1ccccc1 | inactive: > 100 µM
Cc1cc(Cl)ccc1NC1=NC(=O)C(CC(=O)Nc2ccc(Cl)cc2Cl)S1 (stereo unspecified) | inactive: > 100 µM
COc1ccc(OCC(=N/NC(=O)c2ccncc2)/N=C/c2ccncc2)cc1 | inactive: > 100 µM
CN(C(=O)C12C3(C(=O)O)C4C5(C(=O)O)C3C1(C(=O)O)C5C42C(=O)O)C(C)(C)C (stereo unspecified) | inactive: > 100 µM
CCc1ccccc1NC(=O)C(C#N)C1=C(Cl)C(=O)c2ccccc2C1=O (stereo unspecified) | inactive: 14.8 µM
C/N=N/N(C)C(=O)NC | inactive: > 100 µM
Oc1ccc2oc3c(O)c4ccccc4cc3c2c1 | inactive: 63.5 µM
COc1cc2c(cc1OC)C(C(=O)c1cccc(OC)c1OC)C(=O)N(C)CC2 (stereo unspecified) | inactive: > 100 µM
O=C(c1ccccc1)C1OC12C(=O)Nc1ccccc12 (stereo unspecified) | inactive: 33.3 µM
OC1(C(Sc2cc(C(F)(F)F)cc(C(F)(F)F)c2)Sc2cc(C(F)(F)F)cc(C(F)(F)F)c2)C=CCCC1 (stereo unspecified) | inactive: 6.78 µM
O=C(O)CCSC(=O)Nc1ccccc1Cl | inactive: > 100 µM
Cn1cc(C(=O)NCCC(=N)N)cc1NC(=O)C1=[N+](C)C=C(NC(=O)c2cccc(C(=O)NC3=CC(C(=O)Nc4cc(C(=O)NCCC(=N)N)cn4C)=[N+](C)C3)c2)C1 | inactive: > 100 µM
CSc1nnc(CCC(=O)Nc2c(C)cccc2C)o1 | inactive: > 100 µM
O=C(O)c1oc2ccc([N+](=O)[O-])c3c2c1CCC3 | inactive: > 100 µM
Cc1c2cc[n+](C)cc2c(C)c2c1[nH]c1ccc(O)cc12 [ELLIPTINIUM ACETATE] | inactive: 6.34 µM
O=C(C=P(c1ccccc1)(c1ccccc1)c1ccccc1)c1ccc(-c2cccc([N+](=O)[O-])c2)cc1 | inactive: 4.29 µM
COc1ccc2c(c1)-c1nc(=S)n(CCN(C)C)c3ccc([N+](=O)[O-])c(c13)N2 | active: 0.807 µM

— ChEMBL document CHEMBL1201862, “PubChem BioAssay data set” (2004)
